{"source": "paper PMC4336329", "about": "(PLoS ONE, 2015)", "note": "In all, about 310,000 compounds went through this assay and about 14,000 (4.5%) showed an effect of 50% or more. The effect is printed as a negative number. The list shows a part of the results.", "data": [{"molecular_target": "human ether-à-go-go-related gene (hERG) potassium channel (human, UniProt Q12809)", "sequence (Q12809 whole entry, looked up)": "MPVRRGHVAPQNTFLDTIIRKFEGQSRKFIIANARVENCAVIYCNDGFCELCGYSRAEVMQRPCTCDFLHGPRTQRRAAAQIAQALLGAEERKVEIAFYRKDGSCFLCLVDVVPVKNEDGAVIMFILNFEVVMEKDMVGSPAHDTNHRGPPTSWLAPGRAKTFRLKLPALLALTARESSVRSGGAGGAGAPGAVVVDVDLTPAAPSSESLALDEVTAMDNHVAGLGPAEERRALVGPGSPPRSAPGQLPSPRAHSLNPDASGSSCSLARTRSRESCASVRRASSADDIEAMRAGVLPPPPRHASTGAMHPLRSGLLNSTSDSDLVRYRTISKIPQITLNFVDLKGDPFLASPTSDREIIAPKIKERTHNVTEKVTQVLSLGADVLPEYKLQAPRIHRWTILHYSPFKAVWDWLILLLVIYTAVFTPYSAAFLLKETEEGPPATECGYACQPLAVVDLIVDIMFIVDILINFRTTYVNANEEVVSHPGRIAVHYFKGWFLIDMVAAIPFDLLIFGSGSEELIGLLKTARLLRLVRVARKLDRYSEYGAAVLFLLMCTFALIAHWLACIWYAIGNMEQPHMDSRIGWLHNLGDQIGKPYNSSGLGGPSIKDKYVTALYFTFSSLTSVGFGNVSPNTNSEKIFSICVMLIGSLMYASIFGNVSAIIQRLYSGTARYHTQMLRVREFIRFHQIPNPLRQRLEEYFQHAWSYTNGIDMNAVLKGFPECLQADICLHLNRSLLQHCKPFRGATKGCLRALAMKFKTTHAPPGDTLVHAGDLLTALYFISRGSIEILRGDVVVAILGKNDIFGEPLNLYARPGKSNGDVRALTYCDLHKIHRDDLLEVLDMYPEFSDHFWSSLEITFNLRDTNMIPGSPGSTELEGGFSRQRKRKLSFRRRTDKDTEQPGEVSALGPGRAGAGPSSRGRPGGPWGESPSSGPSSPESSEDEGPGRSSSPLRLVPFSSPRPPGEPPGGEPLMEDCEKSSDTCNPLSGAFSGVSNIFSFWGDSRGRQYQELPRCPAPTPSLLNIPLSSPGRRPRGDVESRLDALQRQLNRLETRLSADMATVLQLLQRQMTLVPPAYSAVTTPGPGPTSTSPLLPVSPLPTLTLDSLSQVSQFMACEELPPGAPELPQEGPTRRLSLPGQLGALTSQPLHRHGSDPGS", "test": "primary screen, population patch clamp on CHO cells stably expressing hERG", "units": {"hERG current change (%, negative = inhibition) at 10uM": "%"}, "values": [{"molecule": "Cc1nc2ccc(S(=O)(=O)NC(C(=O)NCc3ccc4c(c3)OCO4)C(C)C)cc2s1", "note": "(centres unmarked);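 note: peak tail current of the secondary pulse compared with the same well before compound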", "hERG current change (%, negative = inhibition) at 10uM": -5.4}, {"molecule": "O=C(NCc1cccc(Br)c1)c1cc(-c2ccccc2)nn1CC1CC(c2cccc([N+](=O)[O-])c2)=NO1", "note": "(centres unmarked)", "hERG current change (%, negative = inhibition) at 10uM": -0.929}, {"molecule": "Cc1ccc2c(c1)c1ncn(Cc3ccc(F)cc3)c(=O)c1n2C", "hERG current change (%, negative = inhibition) at 10uM": -6.32}, {"molecule": "O=C(/C=N/O)NCCCn1ccnc1", "hERG current change (%, negative = inhibition) at 10uM": 3.97}, {"molecule": "CCOC(=O)c1c(-c2ccc(OC)cc2)nc2nonc2c1N", "hERG current change (%, negative = inhibition) at 10uM": -19.8}, {"molecule": "Cn1c(CNC(=O)CCNC(=O)c2ccccc2)cc(=O)n(C)c1=O", "hERG current change (%, negative = inhibition) at 10uM": 15.9}, {"molecule": "CC(C)N1CCN(Cc2cccc3c2OCO3)CC1CCO", "note": "(centres unmarked)", "hERG current change (%, negative = inhibition) at 10uM": -0.928}, {"molecule": "Clc1ccc(NC2=NCCC2)cc1Cl", "hERG current change (%, negative = inhibition) at 10uM": -5.94}, {"molecule": "CCCc1[nH]nc2c1C(c1cccc(OC)c1)C(C#N)=C(N)O2", "note": "(centres unmarked)", "hERG current change (%, negative = inhibition) at 10uM": -36.5}, {"molecule": "CC(C)Cn1c(N)c(C(=O)COC(=O)CCNS(=O)(=O)c2ccccc2)c(=O)n(C)c1=O", "hERG current change (%, negative = inhibition) at 10uM": -48.4}, {"molecule": "CCn1c(CSc2nc3ccccc3n2C)nc2ccccc21", "hERG current change (%, negative = inhibition) at 10uM": -28.9}, {"molecule": "CCOc1ccc(C(=O)CCC(=O)N(CC)CC(=O)Nc2c(F)cccc2F)cc1", "hERG current change (%, negative = inhibition) at 10uM": -25.6}, {"molecule": "O=C(Nc1ccccc1)c1cccc(N2CCCC2=O)c1", "hERG current change (%, negative = inhibition) at 10uM": 7.13}, {"molecule": "O=C(Nc1ccccc1)NC(Cc1ccc(O)cc1)C(=O)O", "note": "(centres unmarked)", "hERG current change (%, negative = inhibition) at 10uM": 17.4}, {"molecule": "Cc1ccc(C)c(NC(=O)NNS(=O)(=O)c2ccc(C)c(C)c2)c1", "hERG current change (%, negative = inhibition) at 10uM": 5.67}, {"molecule": "COc1cc(C(=O)Cc2nc3ccccc3n2C)cc(OC)c1OC", "hERG current change (%, negative = inhibition) at 10uM": 13.8}, {"molecule": "O=C(O)CC(NC(=O)C12CC3CC(CC(C3)C1)C2)c1ccc(Cl)cc1", "note": "(centres unmarked)", "hERG current change (%, negative = inhibition) at 10uM": 3.8}, {"molecule": "CN(C)S(=O)(=O)Oc1ccc(C(=O)Nc2cccc(C(F)(F)F)c2)cc1", "hERG current change (%, negative = inhibition) at 10uM": 15.6}, {"molecule": "COc1ccc(NC(=O)C2C3C=CC(C3)C2C(=O)NCc2ccccn2)c(OC)c1", "note": "(centres unmarked)", "hERG current change (%, negative = inhibition) at 10uM": 30}, {"molecule": "COC(=O)c1ccc(C(=O)OC)c(NC(=O)COC(=O)c2ccc(OC)c(OC)c2OC)c1", "hERG current change (%, negative = inhibition) at 10uM": 18.7}, {"molecule": "CCOC(=O)C1CCCN(C2CC(=O)N(c3cccc(C(F)(F)F)c3)C2=O)C1.Cl", "note": "(centres unmarked)", "hERG current change (%, negative = inhibition) at 10uM": -12.4}, {"molecule": "COC(=O)CSc1nc2c(c(-c3ccco3)c1C#N)CCCC2", "hERG current change (%, negative = inhibition) at 10uM": -1.09}, {"molecule": "CCC(COC)NCc1cn(-c2ccc(OC)cc2)nc1-c1cccc(F)c1", "note": "(centres unmarked)", "hERG current change (%, negative = inhibition) at 10uM": -70.3}, {"molecule": "CN=C(Nc1cccc(Cl)c1)SC1CC(=O)N(c2ccc(OC)cc2)C1=O", "note": "(centres unmarked)", "hERG current change (%, negative = inhibition) at 10uM": 11}, {"molecule": "Cc1ccc(C2=NN(C(=O)CN3CCN(C4CCS(=O)(=O)C4)CC3)C(c3ccco3)C2)cc1", "note": "(centres unmarked)", "hERG current change (%, negative = inhibition) at 10uM": -3.72}, {"molecule": "CCOc1ccc(NC(=O)CSc2nnc(C3CC3)n2C2CC2)cc1", "hERG current change (%, negative = inhibition) at 10uM": -15.7}, {"molecule": "Cc1ccc(NC(=O)Nc2ccccc2)nc1", "hERG current change (%, negative = inhibition) at 10uM": 15.4}, {"molecule": "Cn1c(-c2ccc(F)cc2)cnc1NCc1ccccc1", "hERG current change (%, negative = inhibition) at 10uM": -46.7}, {"molecule": "CC(C)(C)c1ccc(C(=O)NCc2ccccc2)cc1", "hERG current change (%, negative = inhibition) at 10uM": 39}, {"molecule": "O=C(CCNc1n[nH]c(=O)[nH]c1=O)N1CCOCC1", "hERG current change (%, negative = inhibition) at 10uM": -9.49}, {"molecule": "COc1ccc(-c2nc(-c3ccc(Br)o3)no2)cc1OC", "hERG current change (%, negative = inhibition) at 10uM": 3.55}, {"molecule": "O=c1[nH]nc(SCc2ccccc2)n1C1CC2C=CC1C2", "note": "(centres unmarked)", "hERG current change (%, negative = inhibition) at 10uM": 7.61}, {"molecule": "Cc1cccc(-n2nnc(C(=O)NCc3ccccn3)c2N)c1", "hERG current change (%, negative = inhibition) at 10uM": 0.598}, {"molecule": "O=C(Nc1ccccn1)c1ccc(Br)c(S(=O)(=O)N2CCCC2)c1", "hERG current change (%, negative = inhibition) at 10uM": -7.5}, {"molecule": "CC(C)CC(C(=O)NC1CCCCC1)N(Cc1cccs1)C(=O)c1snc(C(N)=O)c1N", "note": "(centres unmarked)", "hERG current change (%, negative = inhibition) at 10uM": 7.49}, {"molecule": "COc1ccc(C(=O)OCC(=O)NC2CCCC2)c(OC)c1OC", "hERG current change (%, negative = inhibition) at 10uM": 11}, {"molecule": "COc1ccc(NC(=O)Cn2nnc(C(=O)NCc3cccs3)c2N)cc1", "hERG current change (%, negative = inhibition) at 10uM": 13.9}, {"molecule": "Cc1ccc(CSc2nnc(C(F)(F)F)n2Cc2ccc(F)cc2)cc1", "hERG current change (%, negative = inhibition) at 10uM": -1.96}, {"molecule": "Cc1ccccc1NC(=O)c1ccccc1NC(=O)c1ccco1", "hERG current change (%, negative = inhibition) at 10uM": 5}, {"molecule": "COc1cccc(C2=Nn3c(nnc3-c3ccccc3O)SC2)c1", "hERG current change (%, negative = inhibition) at 10uM": 16.9}, {"molecule": "O=C(c1ccco1)N1CCc2[nH]nc(-c3ccc(Cl)cc3)c2C1", "hERG current change (%, negative = inhibition) at 10uM": -21.3}, {"molecule": "COc1cc(C(=O)N2CCN(C)CC2)cc(OC)c1OC.Cl", "hERG current change (%, negative = inhibition) at 10uM": 20}, {"molecule": "O=C(CSc1nnnn1C1CCCCC1)N1CCOCC1", "hERG current change (%, negative = inhibition) at 10uM": -9.94}, {"molecule": "Nc1cc(=O)[nH]c(SCc2ccc(Cl)cc2)n1", "hERG current change (%, negative = inhibition) at 10uM": -11.4}]}]}
